The other results are listed elsewhere or left out.
Key:
Test in all cases: glycan array binding signal (z-score within array); higher = stronger binding
Conditions in all cases: glycan notation: IUPAC condensed, linker removed
[1] = target: Neu5Ac(a2-3)Gal(b1-4)GlcNAc(b1-2)[Neu5Ac(a2-3)Gal(b1-4)GlcNAc(b1-4)]Man(a1-3)[GlcNAc(b1-4)][Neu5Ac(a2-3)Gal(b1-4)GlcNAc(b1-2)[Neu5Ac(a2-3)Gal(b1-4)GlcNAc(b1-6)]Man(a1-6)]Man(b1-4)GlcNAc(b1-4)GlcNAc
Method in brief: (§1)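 Arrays were curated from the Consortium for Functional Glycomics database, 3228 in total, and kept only where the protein sequence was available. Binding is expressed as a within-array Z-score. This score was averaged across arrays of the same protein sequence at different concentrations or buffers and across linkers, and negative values can be read as non-binding.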

[2] = target: Neu5Ac(a2-3)Gal(b1-4)GlcNAc(b1-2)[Neu5Ac(a2-3)Gal(b1-4)GlcNAc(b1-4)]Man(a1-3)[GlcNAc(b1-4)][Neu5Ac(a2-3)Gal(b1-4)GlcNAc(b1-4)Man(a1-6)]Man(b1-4)GlcNAc(b1-4)GlcNAc
Method in brief: as §1

[3] = target: Neu5Ac(a2-3)Gal(b1-4)GlcNAc(b1-2)[Neu5Ac(a2-3)Gal(b1-4)GlcNAc(b1-6)]Man(a1-6)[Neu5Ac(a2-3)Gal(b1-4)GlcNAc(b1-2)Man(a1-3)]Man(b1-4)GlcNAc(b1-4)GlcNAc
Method in brief: as §1

[4] = target: Neu5Ac(a2-3)Gal(b1-4)GlcNAc(b1-2)[Neu5Ac(a2-3)Gal(b1-4)GlcNAc(b1-6)]Man(a1-6)[Neu5Ac(a2-3)Gal(b1-4)GlcNAc(b1-2)Man(a1-3)][GlcNAc(b1-4)]Man(b1-4)GlcNAc(b1-4)GlcNAc
Method in brief: as §1

[5] = target: Neu5Ac(a2-3)Gal(b1-4)GlcNAc(b1-3)Gal
Method in brief: as §1

[6] = target: Neu5Ac(a2-3)Gal(b1-4)GlcNAc(b1-3)Gal(b1-3)GlcNAc
Method in brief: as §1

[7] = target: Neu5Ac(a2-3)Gal(b1-4)GlcNAc(b1-3)Gal(b1-4)GlcNAc
Method in brief: as §1

[8] = target: Neu5Ac(a2-3)Gal(b1-4)GlcNAc(b1-3)Gal(b1-4)GlcNAc(b1-2)Man(a1-3)[Neu5Ac(a2-3)Gal(b1-4)GlcNAc(b1-3)Gal(b1-4)GlcNAc(b1-2)Man(a1-6)]Man(b1-4)GlcNAc(b1-4)GlcNAc
Method in brief: as §1

[9] = target: Neu5Ac(a2-3)Gal(b1-4)GlcNAc(b1-3)Gal(b1-4)GlcNAc(b1-3)Gal(b1-4)GlcNAc
Method in brief: as §1

[10] = target: Neu5Ac(a2-3)Gal(b1-4)GlcNAc(b1-3)Gal(b1-4)GlcNAc(b1-3)Gal(b1-4)GlcNAc(b1-2)Man(a1-3)[Neu5Ac(a2-3)Gal(b1-4)GlcNAc(b1-3)Gal(b1-4)GlcNAc(b1-3)Gal(b1-4)GlcNAc(b1-2)Man(a1-6)]GalNAc
Method in brief: as §1

[11] = target: Neu5Ac(a2-3)Gal(b1-4)GlcNAc(b1-3)Gal(b1-4)GlcNAc(b1-3)GalNAc
Method in brief: as §1

[12] = target: Neu5Ac(a2-3)Gal(b1-4)GlcNAc(b1-3)Gal(b1-4)GlcNAc(b1-3)[Neu5Ac(a2-3)Gal(b1-4)GlcNAc(b1-3)Gal(b1-4)GlcNAc(b1-6)]GalNAc
Method in brief: as §1

[13] = target: Neu5Ac(a2-3)Gal(b1-4)GlcNAc(b1-3)Gal(b1-4)GlcNAc(b1-6)[Gal(b1-3)]GalNAc
Method in brief: as §1

[14] = target: Neu5Ac(a2-3)Gal(b1-4)GlcNAc(b1-3)Gal(b1-4)[Fuc(a1-3)]GlcNAc
Method in brief: as §1

[15] = target: Neu5Ac(a2-3)Gal(b1-4)GlcNAc(b1-3)GalNAc
Method in brief: as §1

[16] = target: Neu5Ac(a2-3)Gal(b1-4)GlcNAc(b1-3)[Neu5Ac(a2-3)Gal(b1-4)GlcNAc(b1-6)]GalNAc
Method in brief: as §1

[17] = target: Neu5Ac(a2-3)Gal(b1-4)GlcNAc(b1-6)GalNAc
Method in brief: as §1

[18] = target: Neu5Ac(a2-3)Gal(b1-4)GlcNAc(b1-6)[Gal(b1-3)]GalNAc
Method in brief: as §1

[19] = target: Neu5Ac(a2-3)Gal(b1-4)GlcNAc(b1-6)[Neu5Ac(a2-3)Gal(b1-3)]GalNAc
Method in brief: as §1

[20] = target: Neu5Ac(a2-3)Gal(b1-4)GlcNAc6S
Method in brief: as §1

[21] = target: Neu5Ac(a2-3)Gal(b1-4)[Fuc(a1-3)]GlcNAc
Method in brief: as §1

[22] = target: Neu5Ac(a2-3)Gal(b1-4)[Fuc(a1-3)]GlcNAc(b1-2)Man
Method in brief: as §1

[23] = target: Neu5Ac(a2-3)Gal(b1-4)[Fuc(a1-3)]GlcNAc(b1-3)Gal
Method in brief: as §1

[24] = target: Neu5Ac(a2-3)Gal(b1-4)[Fuc(a1-3)]GlcNAc(b1-3)Gal(b1-4)GlcNAc
Method in brief: as §1

[25] = target: Neu5Ac(a2-3)Gal(b1-4)[Fuc(a1-3)]GlcNAc(b1-3)Gal(b1-4)[Fuc(a1-3)]GlcNAc(b1-3)Gal(b1-4)[Fuc(a1-3)]GlcNAc
Method in brief: as §1

[26] = target: Neu5Ac(a2-3)Gal(b1-4)[Fuc(a1-3)]GlcNAc(b1-3)GalNAc
Method in brief: as §1

[27] = target: Neu5Ac(a2-3)Gal(b1-4)[Fuc(a1-3)]GlcNAc(b1-6)[Gal(b1-3)]GalNAc
Method in brief: as §1

[28] = target: Neu5Ac(a2-3)Gal(b1-4)[Fuc(a1-3)]GlcNAc(b1-6)[Neu5Ac(a2-3)Gal(b1-3)]GalNAc
Method in brief: as §1

[29] = target: Neu5Ac(a2-3)Gal(b1-4)[Fuc(a1-3)]GlcNAc6S
Method in brief: as §1

[30] = target: Neu5Ac(a2-3)Gal6S(b1-4)GlcNAc
Method in brief: as §1

[31] = target: Neu5Ac(a2-3)Gal6S(b1-4)[Fuc(a1-3)]GlcNAc
Method in brief: as §1

Neu5Ac(a2-3)GalNAc = target: Neu5Ac(a2-3)GalNAc
Method in brief: as §1

[32] = target: Neu5Ac(a2-3)GalNAc(b1-4)GlcNAc
Method in brief: as §1

[33] = target: Neu5Ac(a2-3)[GalNAc(b1-4)]Gal(b1-4)Glc
Method in brief: as §1

[34] = target: Neu5Ac(a2-3)[GalNAc(b1-4)]Gal(b1-4)GlcNAc
Method in brief: as §1

[35] = target: Neu5Ac(a2-3)[GalNAc(b1-4)]Gal(b1-4)GlcNAc(b1-3)GalNAc
Method in brief: as §1

[36] = target: Neu5Ac(a2-3)[Neu5Ac(a2-6)]GalNAc
Method in brief: as §1

B1: DC-Sign (Homo sapiens), Q9NNX6 (protein)
chain: MSDSKEPRLQQLGLLEEEQLRGLGFRQTRGYKSLAGCLGHGPLVLQLLSFTLLAGLLVQVSKVPSSISQEQSRQDAIYQNLTQLKAAVGELSEKSKLQEIYQELTQLKAAVGELPEKSKLQEIYQELTRLKAAVGELPEKSKLQEIYQELTWLKAAVGELPEKSKMQEIYQELTRLKAAVGELPEKSKQQEIYQELTRLKAAVGELPEKSKQQEIYQELTRLKAAVGELPEKSKQQEIYQELTQLKAAVERLCHPCPWEWTFFQGNCYFMSNSQRNWHDSITACKEVGAQLVVIKSAEEQNFLQLQSSRSNRFTWMGLSDLNQEGTWQWVDGSPLLPSFKQYWNRGEPNNVGEEDCAEFSGNGWNDDKCNLAKFWICKKSAASCSRDEEQFLSPAPATPNPPPA
glycan array binding signal (z-score) [1]: -0.156 | glycan array binding signal (z-score) [2]: -0.187 | glycan array binding signal (z-score) [3]: -0.062 | glycan array binding signal (z-score) [4]: -0.187 | glycan array binding signal (z-score) [5]: -0.186 | glycan array binding signal (z-score) [6]: -0.14 | glycan array binding signal (z-score) [7]: -0.173 | glycan array binding signal (z-score) [8]: -0.177 | glycan array binding signal (z-score) [9]: -0.18 | glycan array binding signal (z-score) [10]: -0.115 | glycan array binding signal (z-score) [11]: -0.032 | glycan array binding signal (z-score) [12]: -0.143 | glycan array binding signal (z-score) [13]: -0.085 | glycan array binding signal (z-score) [14]: -0.205 | glycan array binding signal (z-score) [15]: -0.061 | glycan array binding signal (z-score) [16]: -0.074 | glycan array binding signal (z-score) [17]: -0.175 | glycan array binding signal (z-score) [18]: -0.171 | glycan array binding signal (z-score) [19]: -0.209 | glycan array binding signal (z-score) [20]: -0.194 | glycan array binding signal (z-score) [21]: -0.192 | glycan array binding signal (z-score) [22]: -0.16 | glycan array binding signal (z-score) [23]: -0.167 | glycan array binding signal (z-score) [24]: -0.111 | glycan array binding signal (z-score) [25]: -0.175 | glycan array binding signal (z-score) [26]: -0.065 | glycan array binding signal (z-score) [27]: -0.164 | glycan array binding signal (z-score) [28]: -0.114 | glycan array binding signal (z-score) [29]: -0.153 | glycan array binding signal (z-score) [30]: -0.193 | glycan array binding signal (z-score) [31]: -0.201 | glycan array binding signal (z-score) (Neu5Ac(a2-3)GalNAc): -0.171 | glycan array binding signal (z-score) [32]: -0.176 | glycan array binding signal (z-score) [33]: -0.167 | glycan array binding signal (z-score) [34]: -0.177 | glycan array binding signal (z-score) [35]: -0.171 | glycan array binding signal (z-score) [36]: -0.17
